Laboratory results: a collection of fitness landscapes (doi:10.1016/j.celrep.2020.107928)
Whole data set: some 81,000 sequences, median “one-hybrid fitness for binding parS DNA” near -0.17, cut for the highest 2% near 0.51. The list shows a part of the results.

B1: Caulobacter ParB omega fusion; a variant is named by its letters at X, in order, B8GW30 (parent)
chain: MESVVVGEPGMSEGRRGLGRGLSALLGEVDAAPAQAPGEQLGGSREAPIEILQRNPDQPRRTFREEDLEDLSNSIREKGVLQPILVRPSPDTAGEYQIVAGERAWRAAQRAGLKTVPIMVRELDDLAVLEIGIIENVQRADLNVLEEALSYKVLMEKFERTQENIAQTIGKSXSHVANXMRLLXLPDEVQSYLVSGELTAXHARAIAAAADPVALAKQIIEGGLSVRETEALARKAPNLSAGKSKGGRPPRVKDTDTQALESDLSSVLGLDVSIDHRGSTGTLTITYATLEQLDDLCNRLTRGI

Variants of: B1
Test: one-hybrid fitness for binding parS DNA (scaled: cognate 1, non-cognate 0); higher = stronger binding
Conditions: with parS DNA site
Outline: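 Fitness is the rescaled log change in variant-to-wild-type read ratio, measured by Illumina sequencing of plasmids before and after bacterial one-hybrid selection. The scale puts cognate at 1 and non-cognate at 0. Selection of Caulobacter ParB libraries, four specificity codons randomised, took place in E. coli USO with a HIS3 reporter, site 19 bp from the promoter, over 48 hours at 37°C on M9-minus-histidine with 0.1 mM IPTG and 5 mM 3-AT.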

CLTT and MLAL cannot be ordered by “one-hybrid fitness for binding parS DNA” value: ≤ 0.2 for the first, ≤ 0.2 for the second.

NAQC and EMPT cannot be ordered by “one-hybrid fitness for binding parS DNA” value: ≤ 0.2 for the first, ≤ 0.2 for the second.

QHVC and RFYR cannot be ordered by “one-hybrid fitness for binding parS DNA” value: ≤ 0.2 for the first, ≤ 0.2 for the second.

KVKW and LVQP cannot be ordered by “one-hybrid fitness for binding parS DNA” value: ≤ 0.2 for the first, ≤ 0.2 for the second.

QHGK and DDVW cannot be ordered by “one-hybrid fitness for binding parS DNA” value: ≤ 0.2 for the first, ≤ 0.2 for the second.

TCKM and QAQF cannot be ordered by “one-hybrid fitness for binding parS DNA” value: ≤ 0.2 for the first, ≤ 0.2 for the second.

HPTM and QYLC cannot be ordered by “one-hybrid fitness for binding parS DNA” value: ≤ 0.2 for the first, ≤ 0.2 for the second.

YGNT and MLTW cannot be ordered by “one-hybrid fitness for binding parS DNA” value: ≤ 0.2 for the first, ≤ 0.2 for the second.

TAER and YVCD cannot be ordered by “one-hybrid fitness for binding parS DNA” value: ≤ 0.2 for the first, ≤ 0.2 for the second.

QHIT and SRHA cannot be ordered by “one-hybrid fitness for binding parS DNA” value: ≤ 0.2 for the first, ≤ 0.2 for the second.

SYCT and VPRG cannot be ordered by “one-hybrid fitness for binding parS DNA” value: ≤ 0.2 for the first, ≤ 0.2 for the second.

Compared with YFDG, RIYN is higher in “one-hybrid fitness for binding parS DNA” value: ≤ 0.2 for the first, 0.476 for the second.

QWAL and IFKN cannot be ordered by “one-hybrid fitness for binding parS DNA” value: ≤ 0.2 for the first, ≤ 0.2 for the second.

RCGF and RYGE cannot be ordered by “one-hybrid fitness for binding parS DNA” value: ≤ 0.2 for the first, ≤ 0.2 for the second.

HQWC and QVPR cannot be ordered by “one-hybrid fitness for binding parS DNA” value: ≤ 0.2 for the first, ≤ 0.2 for the second.

RCNV and TPIW cannot be ordered by “one-hybrid fitness for binding parS DNA” value: ≤ 0.2 for the first, ≤ 0.2 for the second.

KWAK and NSPT cannot be ordered by “one-hybrid fitness for binding parS DNA” value: ≤ 0.2 for the first, ≤ 0.2 for the second.

PVIV and HSHS cannot be ordered by “one-hybrid fitness for binding parS DNA” value: ≤ 0.2 for the first, ≤ 0.2 for the second.

GRER and CYLG cannot be ordered by “one-hybrid fitness for binding parS DNA” value: ≤ 0.2 for the first, ≤ 0.2 for the second.

LHEA and SEKD cannot be ordered by “one-hybrid fitness for binding parS DNA” value: ≤ 0.2 for the first, ≤ 0.2 for the second.

GDTQ and RLFV cannot be ordered by “one-hybrid fitness for binding parS DNA” value: ≤ 0.2 for the first, ≤ 0.2 for the second.

Compared with RFWT, HCEI is lower in “one-hybrid fitness for binding parS DNA” value: 0.649 for the first, ≤ 0.2 for the second.

GEHA and CELR cannot be ordered by “one-hybrid fitness for binding parS DNA” value: ≤ 0.2 for the first, ≤ 0.2 for the second.

WNAT and AYPM cannot be ordered by “one-hybrid fitness for binding parS DNA” value: ≤ 0.2 for the first, ≤ 0.2 for the second.

RVNW and MRNI cannot be ordered by “one-hybrid fitness for binding parS DNA” value: ≤ 0.2 for the first, ≤ 0.2 for the second.

TIEK and GWNR cannot be ordered by “one-hybrid fitness for binding parS DNA” value: ≤ 0.2 for the first, ≤ 0.2 for the second.

CMMG and DHID cannot be ordered by “one-hybrid fitness for binding parS DNA” value: ≤ 0.2 for the first, ≤ 0.2 for the second.

VRRP and MRST cannot be ordered by “one-hybrid fitness for binding parS DNA” value: ≤ 0.2 for the first, ≤ 0.2 for the second.

CSLI and VLEC cannot be ordered by “one-hybrid fitness for binding parS DNA” value: ≤ 0.2 for the first, ≤ 0.2 for the second.

RHKP and LFRI cannot be ordered by “one-hybrid fitness for binding parS DNA” value: ≤ 0.2 for the first, ≤ 0.2 for the second.

YASM and AEMG cannot be ordered by “one-hybrid fitness for binding parS DNA” value: ≤ 0.2 for the first, ≤ 0.2 for the second.

VKKM and SQIL cannot be ordered by “one-hybrid fitness for binding parS DNA” value: ≤ 0.2 for the first, ≤ 0.2 for the second.

QHLV and GRAR cannot be ordered by “one-hybrid fitness for binding parS DNA” value: ≤ 0.2 for the first, ≤ 0.2 for the second.

PWMG and CLKF cannot be ordered by “one-hybrid fitness for binding parS DNA” value: ≤ 0.2 for the first, ≤ 0.2 for the second.

DKVH and TAPV cannot be ordered by “one-hybrid fitness for binding parS DNA” value: ≤ 0.2 for the first, ≤ 0.2 for the second.

EPPA and QQVD cannot be ordered by “one-hybrid fitness for binding parS DNA” value: ≤ 0.2 for the first, ≤ 0.2 for the second.

EPQN and PYHK cannot be ordered by “one-hybrid fitness for binding parS DNA” value: ≤ 0.2 for the first, ≤ 0.2 for the second.

Going from RNFS to QAVH, the “one-hybrid fitness for binding parS DNA” value falls from 0.719 to ≤ 0.2.

SNLA and ICWT cannot be ordered by “one-hybrid fitness for binding parS DNA” value: ≤ 0.2 for the first, ≤ 0.2 for the second.

TWPY and VLRS cannot be ordered by “one-hybrid fitness for binding parS DNA” value: ≤ 0.2 for the first, ≤ 0.2 for the second.

APRH and PTAN cannot be ordered by “one-hybrid fitness for binding parS DNA” value: ≤ 0.2 for the first, ≤ 0.2 for the second.

TKAN and RDKQ cannot be ordered by “one-hybrid fitness for binding parS DNA” value: ≤ 0.2 for the first, ≤ 0.2 for the second.

Compared with HFHV, RCPG is higher in “one-hybrid fitness for binding parS DNA” value: ≤ 0.2 for the first, 0.81 for the second.

AKEG and WYKT cannot be ordered by “one-hybrid fitness for binding parS DNA” value: ≤ 0.2 for the first, ≤ 0.2 for the second.

KRPW and HFHY cannot be ordered by “one-hybrid fitness for binding parS DNA” value: ≤ 0.2 for the first, ≤ 0.2 for the second.

ECES and SRRH cannot be ordered by “one-hybrid fitness for binding parS DNA” value: ≤ 0.2 for the first, ≤ 0.2 for the second.

KEVG and TGLE cannot be ordered by “one-hybrid fitness for binding parS DNA” value: ≤ 0.2 for the first, ≤ 0.2 for the second.

WWPR and HANR cannot be ordered by “one-hybrid fitness for binding parS DNA” value: ≤ 0.2 for the first, ≤ 0.2 for the second.

QLIK and TKPC cannot be ordered by “one-hybrid fitness for binding parS DNA” value: ≤ 0.2 for the first, ≤ 0.2 for the second.

FNHG and TPAV cannot be ordered by “one-hybrid fitness for binding parS DNA” value: ≤ 0.2 for the first, ≤ 0.2 for the second.

FVGM and AIPC cannot be ordered by “one-hybrid fitness for binding parS DNA” value: ≤ 0.2 for the first, ≤ 0.2 for the second.

PTLL and RPFC cannot be ordered by “one-hybrid fitness for binding parS DNA” value: ≤ 0.2 for the first, ≤ 0.2 for the second.

HAAD and TTEC cannot be ordered by “one-hybrid fitness for binding parS DNA” value: ≤ 0.2 for the first, ≤ 0.2 for the second.

HCES and PYMF cannot be ordered by “one-hybrid fitness for binding parS DNA” value: ≤ 0.2 for the first, ≤ 0.2 for the second.

IING and GHNW cannot be ordered by “one-hybrid fitness for binding parS DNA” value: ≤ 0.2 for the first, ≤ 0.2 for the second.

GVSC and ASHT cannot be ordered by “one-hybrid fitness for binding parS DNA” value: ≤ 0.2 for the first, ≤ 0.2 for the second.

QCLQ and LLSY cannot be ordered by “one-hybrid fitness for binding parS DNA” value: ≤ 0.2 for the first, ≤ 0.2 for the second.

SVMF and PDDS cannot be ordered by “one-hybrid fitness for binding parS DNA” value: ≤ 0.2 for the first, ≤ 0.2 for the second.

RYGH and QKAV cannot be ordered by “one-hybrid fitness for binding parS DNA” value: ≤ 0.2 for the first, ≤ 0.2 for the second.

TPNH and NRAC cannot be ordered by “one-hybrid fitness for binding parS DNA” value: ≤ 0.2 for the first, ≤ 0.2 for the second.

RAQL and GGCT cannot be ordered by “one-hybrid fitness for binding parS DNA” value: ≤ 0.2 for the first, ≤ 0.2 for the second.

YILA and LRTQ cannot be ordered by “one-hybrid fitness for binding parS DNA” value: ≤ 0.2 for the first, ≤ 0.2 for the second.

PGVV and RGRW cannot be ordered by “one-hybrid fitness for binding parS DNA” value: ≤ 0.2 for the first, ≤ 0.2 for the second.

MAVK and TFST cannot be ordered by “one-hybrid fitness for binding parS DNA” value: ≤ 0.2 for the first, ≤ 0.2 for the second.

GYWC and AAIN cannot be ordered by “one-hybrid fitness for binding parS DNA” value: ≤ 0.2 for the first, ≤ 0.2 for the second.

TSVP and CNIG cannot be ordered by “one-hybrid fitness for binding parS DNA” value: ≤ 0.2 for the first, ≤ 0.2 for the second.

PLWL and YPTC cannot be ordered by “one-hybrid fitness for binding parS DNA” value: ≤ 0.2 for the first, ≤ 0.2 for the second.

QPTS and NDLY cannot be ordered by “one-hybrid fitness for binding parS DNA” value: ≤ 0.2 for the first, ≤ 0.2 for the second.

GCHS and RYGP cannot be ordered by “one-hybrid fitness for binding parS DNA” value: ≤ 0.2 for the first, ≤ 0.2 for the second.

LRLC and KVVA cannot be ordered by “one-hybrid fitness for binding parS DNA” value: ≤ 0.2 for the first, ≤ 0.2 for the second.

RGFM and QIGM cannot be ordered by “one-hybrid fitness for binding parS DNA” value: ≤ 0.2 for the first, ≤ 0.2 for the second.

MSRY and QVHA cannot be ordered by “one-hybrid fitness for binding parS DNA” value: ≤ 0.2 for the first, ≤ 0.2 for the second.

NTWT and CDPR cannot be ordered by “one-hybrid fitness for binding parS DNA” value: ≤ 0.2 for the first, ≤ 0.2 for the second.

Going from GKSC to DYSF, the “one-hybrid fitness for binding parS DNA” value falls from 0.22 to ≤ 0.2.

ENNT and MSIV cannot be ordered by “one-hybrid fitness for binding parS DNA” value: ≤ 0.2 for the first, ≤ 0.2 for the second.

TCLE and HIHS cannot be ordered by “one-hybrid fitness for binding parS DNA” value: ≤ 0.2 for the first, ≤ 0.2 for the second.

In the case of GTTK, the “one-hybrid fitness for binding parS DNA” value is reported as ≤ 0.2.
